Measured values reported in the supplement of paper PMC8728848.
The other results are listed elsewhere or left out.

What was measured:
Experiment in all cases: glycan array binding signal (z-score within array); higher = stronger binding
Details in all cases: glycan notation: IUPAC condensed, linker removed
[1] = biological target: Gal(b1-4)GlcNAc(b1-6)[Gal(b1-3)]GalNAc
In short: (§1)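 Columns mapping to the same glycan were averaged after glycan names were converted to IUPAC-condensed notation. The data come from 3228 arrays in the Consortium for Functional Glycomics database, limited to those with an available protein sequence. Binding is reported as a within-array Z-score averaged across arrays of one protein sequence and across linkers.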

Gal3S(b1-3)GalNAc = biological target: Gal3S(b1-3)GalNAc
In short: as §1

Gal3S(b1-3)GlcNAc = biological target: Gal3S(b1-3)GlcNAc
In short: as §1

[2] = biological target: Gal3S(b1-3)[Fuc(a1-4)]GlcNAc
In short: as §1

Gal3S(b1-4)Glc = biological target: Gal3S(b1-4)Glc
In short: as §1

Gal3S(b1-4)Glc6S = biological target: Gal3S(b1-4)Glc6S
In short: as §1

Gal3S(b1-4)GlcNAc = biological target: Gal3S(b1-4)GlcNAc
In short: as §1

Gal4S(b1-4)GlcNAc = biological target: Gal4S(b1-4)GlcNAc
In short: as §1

Gal6S(b1-4)Glc = biological target: Gal6S(b1-4)Glc
In short: as §1

Gal6S(b1-4)Glc6S = biological target: Gal6S(b1-4)Glc6S
In short: as §1

GalNAc(a1-3)Gal = biological target: GalNAc(a1-3)Gal
In short: as §1

GalNAc(a1-3)GalNAc = biological target: GalNAc(a1-3)GalNAc
In short: as §1

GalNAc(b1-3)GalNAc = biological target: GalNAc(b1-3)GalNAc
In short: as §1

GalNAc(b1-4)GlcNAc = biological target: GalNAc(b1-4)GlcNAc
In short: as §1

Glc(a1-4)Glc = biological target: Glc(a1-4)Glc
In short: as §1

Glc(b1-4)Glc = biological target: Glc(b1-4)Glc
In short: as §1

Glc(b1-6)Glc = biological target: Glc(b1-6)Glc
In short: as §1

[3] = biological target: GlcNAc(b1-2)Gal(b1-3)GalNAc
In short: as §1

GlcNAc(b1-3)Gal = biological target: GlcNAc(b1-3)Gal
In short: as §1

[4] = biological target: GlcNAc(b1-3)Gal(b1-3)GalNAc
In short: as §1

GlcNAc(b1-3)Gal(b1-4)Glc = biological target: GlcNAc(b1-3)Gal(b1-4)Glc
In short: as §1

[5] = biological target: GlcNAc(b1-3)Gal(b1-4)GlcNAc
In short: as §1

[6] = biological target: GlcNAc(b1-3)[GlcNAc(b1-6)]GalNAc
In short: as §1

[7] = biological target: GlcNAc(b1-3)[GlcNAc(b1-6)]GlcNAc(b1-4)GlcNAc
In short: as §1

[8] = biological target: GlcNAc(b1-4)GlcNAc(b1-4)GlcNAc
In short: as §1

[9] = biological target: GlcNAc(b1-4)[GlcNAc(b1-6)]GalNAc
In short: as §1

GlcNAc(b1-6)GalNAc = biological target: GlcNAc(b1-6)GalNAc
In short: as §1

Kdn(a2-3)Gal(b1-3)GlcNAc = biological target: Kdn(a2-3)Gal(b1-3)GlcNAc
In short: as §1

Kdn(a2-3)Gal(b1-4)GlcNAc = biological target: Kdn(a2-3)Gal(b1-4)GlcNAc
In short: as §1

[10] = biological target: Man(a1-2)Man(a1-2)Man(a1-3)Man
In short: as §1

[11] = biological target: Man(a1-2)Man(a1-2)Man(a1-6)[Man(a1-3)]Man
In short: as §1

Man(a1-2)Man(a1-3)Man = biological target: Man(a1-2)Man(a1-3)Man
In short: as §1

[12] = biological target: Man(a1-2)Man(a1-3)[Man(a1-2)Man(a1-6)]Man
In short: as §1

[13] = biological target: Man(a1-2)Man(a1-3)[Man(a1-2)Man(a1-6)]Man(a1-6)[Man(a1-2)Man(a1-2)Man(a1-3)]Man(b1-4)GlcNAc(b1-4)GlcNAc
In short: as §1

[14] = biological target: Man(a1-2)Man(a1-3)[Man(a1-2)Man(a1-6)]Man(a1-6)[Man(a1-3)[Man(a1-6)]Man(a1-6)]Man(b1-4)GlcNAc(b1-4)GlcNAc
In short: as §1

[15] = biological target: Man(a1-2)Man(a1-3)[Man(a1-6)]Man(a1-6)[Man(a1-2)Man(a1-3)]Man(b1-4)GlcNAc(b1-4)GlcNAc
In short: as §1

[16] = biological target: Man(a1-2)Man(a1-6)[Man(a1-3)]Man(a1-6)[Man(a1-2)Man(a1-2)Man(a1-3)]Man(b1-4)GlcNAc(b1-4)GlcNAc
In short: as §1

Man(a1-3)[Man(a1-6)]Man = biological target: Man(a1-3)[Man(a1-6)]Man
In short: as §1

[17] = biological target: Man(a1-3)[Man(a1-6)]Man(a1-6)[Man(a1-3)]Man(b1-4)GlcNAc(b1-4)GlcNAc
In short: as §1

Neu5Ac(a2-3)Gal = biological target: Neu5Ac(a2-3)Gal
In short: as §1

[18] = biological target: Neu5Ac(a2-3)Gal(b1-3)GalNAc
In short: as §1

[19] = biological target: Neu5Ac(a2-3)Gal(b1-3)GalNAc6S
In short: as §1

B1: RegIIIalpha (Mus musculus), O09037 (protein)
chain: MLPHLVLNSISWMLLSCLLFVFQVQGEDFQKEVPSPRTSCPMGYKAYRSHCYALVMTPKSWFQADLVCQKRPSGHLVSILSGGEASFVSSLVNGRVDNYQDIWIGLHDPTMGQQPNGGGWEWSNSDVLNYLNWDGDPSSTVNRGHCGSLTASSGFLKWGDYYCDGTLPFVCKFKQ
[1]
  glycan array binding signal (z-score): -0.094
Gal3S(b1-3)GalNAc
  glycan array binding signal (z-score): -0.099
Gal3S(b1-3)GlcNAc
  glycan array binding signal (z-score): -0.094
[2]
  glycan array binding signal (z-score): -0.098
Gal3S(b1-4)Glc
  glycan array binding signal (z-score): -0.096
Gal3S(b1-4)Glc6S
  glycan array binding signal (z-score): -0.093
Gal3S(b1-4)GlcNAc
  glycan array binding signal (z-score): -0.095
Gal4S(b1-4)GlcNAc
  glycan array binding signal (z-score): 0.116
Gal6S(b1-4)Glc
  glycan array binding signal (z-score): -0.072
Gal6S(b1-4)Glc6S
  glycan array binding signal (z-score): -0.076
GalNAc(a1-3)Gal
  glycan array binding signal (z-score): -0.101
GalNAc(a1-3)GalNAc
  glycan array binding signal (z-score): -0.092
GalNAc(b1-3)GalNAc
  glycan array binding signal (z-score): -0.099
GalNAc(b1-4)GlcNAc
  glycan array binding signal (z-score): -0.095
Glc(a1-4)Glc
  glycan array binding signal (z-score): -0.076
Glc(b1-4)Glc
  glycan array binding signal (z-score): -0.087
Glc(b1-6)Glc
  glycan array binding signal (z-score): -0.091
[3]
  glycan array binding signal (z-score): -0.08
GlcNAc(b1-3)Gal
  glycan array binding signal (z-score): -0.095
[4]
  glycan array binding signal (z-score): -0.088
GlcNAc(b1-3)Gal(b1-4)Glc
  glycan array binding signal (z-score): -0.081
[5]
  glycan array binding signal (z-score): -0.094
[6]
  glycan array binding signal (z-score): -0.091
[7]
  glycan array binding signal (z-score): -0.081
[8]
  glycan array binding signal (z-score): -0.099
[9]
  glycan array binding signal (z-score): -0.085
GlcNAc(b1-6)GalNAc
  glycan array binding signal (z-score): -0.095
Kdn(a2-3)Gal(b1-3)GlcNAc
  glycan array binding signal (z-score): -0.055
Kdn(a2-3)Gal(b1-4)GlcNAc
  glycan array binding signal (z-score): -0.008
[10]
  glycan array binding signal (z-score): -0.083
[11]
  glycan array binding signal (z-score): -0.092
Man(a1-2)Man(a1-3)Man
  glycan array binding signal (z-score): -0.091
[12]
  glycan array binding signal (z-score): -0.056
[13]
  glycan array binding signal (z-score): -0.092
[14]
  glycan array binding signal (z-score): -0.097
[15]
  glycan array binding signal (z-score): -0.101
[16]
  glycan array binding signal (z-score): -0.08
Man(a1-3)[Man(a1-6)]Man
  glycan array binding signal (z-score): -0.088
[17]
  glycan array binding signal (z-score): -0.094
Neu5Ac(a2-3)Gal
  glycan array binding signal (z-score): -0.031
[18]
  glycan array binding signal (z-score): -0.033
[19]
  glycan array binding signal (z-score): -0.095
